Paper PMC6451091
The other results are listed elsewhere or left out. For part of these data: At the low end of the ranking, values are background and their order means little. For part of these data: Measured with an extract: partners may take part in the binding.

Legend:
Conditions in all cases: 20 mM HEPES pH 7.9, 100 mM NaCl, 1 mM DTT, 0.2 mg/mL BSA, 0.02% Triton X-100, 2% milk, 0.4 mg/mL salmon testes DNA; 1 h; temperature not stated; high values mean tight binding; double strand, one strand shown; sequences stand for … in GCCTAGCAC…GTGCTAGGTCTTGATTCGCTTGACGCTGCTG
PU.1 (IVT) = PU.1 (IVT) (UniProt P17947); assay: protein-binding microarray (PBM)
[1] = target: PU.1 (endogenous, THP-1 nuclear extract) (UniProt P17947); assay: nuclear extract protein-binding microarray (nextPBM)
[2] = target: T1, FLI1 (endogenous, THP-1 nuclear extract) (UniProt Q01543); assay: as above
T1 sequence: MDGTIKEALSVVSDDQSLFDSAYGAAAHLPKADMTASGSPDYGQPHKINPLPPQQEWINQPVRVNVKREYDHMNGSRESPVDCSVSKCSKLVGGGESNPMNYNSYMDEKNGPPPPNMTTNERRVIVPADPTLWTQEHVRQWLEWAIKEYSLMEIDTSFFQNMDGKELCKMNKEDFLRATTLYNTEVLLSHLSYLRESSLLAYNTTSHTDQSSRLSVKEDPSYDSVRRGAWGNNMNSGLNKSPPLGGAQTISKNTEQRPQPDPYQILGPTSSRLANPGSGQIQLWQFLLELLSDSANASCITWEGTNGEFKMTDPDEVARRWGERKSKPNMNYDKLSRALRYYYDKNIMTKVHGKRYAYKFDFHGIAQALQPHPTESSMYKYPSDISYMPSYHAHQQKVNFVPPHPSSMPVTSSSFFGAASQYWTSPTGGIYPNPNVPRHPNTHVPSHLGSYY

Row | Sequence | binding signal (PU.1 (IVT)) [z-score] | binding signal [1] [z-score] | binding signal [2] [z-score]
1 | GAAGTAGGGAAGTGAAAGAG | 3.36 | 2.97 | 1.26
2 | CAATAGAGGAAGTGGCAGTG | 6.24 | 6.27 | 3.36
3 | AGAAAAAGGAAGTGATGTAC | 6.23 | 6.14 | 3.15
4 | AGAAAGAGGAACTGAAAAGT | 6.62 | 6.88 | 2.62
5 | CAATTGAGGAAGTCACAAAT | 6.21 | 6.52 | 2.68
6 | AAGAAGAGGAAGTCTATAGC | 5.83 | 5.88 | 2.71
7 | CAAATAAGGAAGTGGGTGTT | 6.04 | 6.31 | 3.37
8 | TGAAAGAGGAAATGGGAGAT | 3.56 | 4 | 2.77
9 | CAGAAGAGGAAGTCAGTGGG | 5.66 | 6.31 | 3.11
10 | AAAAGAAGGAAGTGATAGCA | 5.41 | 5.65 | 2.35
11 | GCAAAGGGGAAGTGGAGACT | 5.65 | 6.17 | 2.81
12 | TGAGAGAGGAAGTGCACAGG | 3.83 | 4.27 | 2.46
13 | GGAAACAGGAAGTCCCATAG | 6.35 | 6.83 | 5
14 | CCAAAGAGGAACTGCAGATT | 4.14 | 4.61 | 1.4
15 | CAAAAAGGGAAGTGAGGAAG | 6.17 | 6.64 | 3.3
16 | ACGAAGAGGAAGTCCAGGAT | 4.52 | 5.35 | 3.42
17 | TGGAGGAGGAAGTGGGTGGA | 4.58 | 4.91 | 2.84
18 | TTAAAGGGGAAGTGTCATGT | 5.67 | 6.26 | 2.58
19 | TAAAAAAGGAAGTCAATTTG | 5.7 | 5.47 | 2.61
20 | TGAATCAGGAAGTCTAGGCA | 3.78 | 3.59 | 2.62
21 | TTGAAGAGGAAGTTTTACTT | 5.32 | 3.98 | 2.55

Row | Sequence | binding signal (PU.1 (IVT)) [z-score] | binding signal [1] [z-score] | binding signal [2] [z-score]
22 | CAAAAAAGGAAGTGGATGCT | 5.93 | 5.79 | 2.88
23 | TCAGGGAGGAAGTAGGTTGG | 3.95 | 4.25 | 2.91
24 | GGTGTGGGGAAGTACTGTGT | 3.69 | 3.02 | 1.42
25 | AGGAAAAGGAAGTGGGGAGC | 3.23 | 3.31 | 2.98
26 | GAGTGGGGGAAGTGAAACAA | 2.85 | 3.36 | 1.62
27 | GGGATGAGGAAGTGATGAGC | 6.14 | 6.22 | 2.6
28 | AAAAAAAGGGACTGGCTAGA | -0.186 | 0.191 | -0.255
29 | CAGGGGAGGAAGTGATTGCG | 3.92 | 3.39 | 3.17
30 | AAGCAGAGGAAGTGAGATTT | 3.71 | 3.01 | 2.88
31 | AAAAAAGGGAAGTGAAAATA | 7.69 | 7.33 | 3.85
32 | AAAAAATGGAACTGGCTAGA | 1.38 | 1.15 | 0.0495
33 | ACAAAAAGGAACTATGCCCC | 2.55 | 2.05 | 0.635
34 | AGGAAGAGGAAGTGAAGAGC | 6.37 | 6.75 | 3.45
35 | AGAAAGAGGAAGAGGAGGGG | 4.14 | 5.02 | 1.91
36 | TAAGAGAGGAAGTCATGCCA | 3.58 | 3.43 | 2.26
37 | GAAAAGAGGAACTCTTGCTC | 7.1 | 6.84 | 3.36
38 | TGAAAGAGGAAGAGCAACCA | 3.55 | 4.11 | 1.73
39 | AGAATGGGGAAGTGAATCTG | 6.95 | 6.92 | 2.84
40 | TAAATGAGGAAGTGTGCTGT | 7.74 | 7.25 | 3.8
41 | GATATGGGGAAGTGGTAGTA | 5.17 | 5.61 | 1.94
42 | AAAAGGAGGAACTGGTTAGG | 4.78 | 4.8 | 1.26

Row | Sequence | binding signal (PU.1 (IVT)) [z-score] | binding signal [1] [z-score] | binding signal [2] [z-score]
43 | CAAAAAGGCAAGTGGATGCT | -0.0802 | -0.0353 | 0.146
44 | TTAAACAGGAACTGGAGTCA | 3.39 | 3.31 | 2.1
45 | GAAAAGAGGAAGTGAAGTTA | 8.28 | 7.39 | 4.42
46 | TATATAGGGAAGTGGGATTC | 4.85 | 5.15 | 1.5
47 | GAAGGGAGGAAGTGGGGGAG | 3.36 | 3.3 | 2.51
48 | GCAAAGAGGAAGTGACTCAA | 6.81 | 6.96 | 3.68
49 | CAAATAGGGAAGTGGATGCT | 6.41 | 6.54 | 2.77
50 | ACTTTGGGGAAGTGGGATTT | 4.59 | 4.8 | 1.84
51 | AGAATGAGGAAATGACAGTC | 4.33 | 4.88 | 2.2
52 | AGAAAGAGGAAGGGTTTGAA | 3.82 | 4.23 | 1.61
53 | AAAAACAGGAAGTCAACAGG | 7.54 | 7.19 | 4.84
54 | GATAAGAGGAAGTCCTCTGT | 5.99 | 6.47 | 3.12
55 | CCACAGAGGAAGTGTGGATA | 2.83 | 2.67 | 2.59
56 | CGATTGGGGAAGTGCCCGCA | 4.54 | 5.59 | 1.83
57 | CAGATGAGGAAATGGAGTTT | 2.93 | 2.85 | 2.19
58 | ACAAATAGGAACTGTGCCCC | 1.51 | 1.61 | 0.477
59 | CGGAAGGGGAAGTGCTAAAC | 5.63 | 6.05 | 5.08
60 | ATAAAAAGGAACTGTGCCCC | 2.4 | 1.81 | 0.653
61 | GAAAAGAGGAAGTCAAATGG | 8.01 | 7.13 | 4.17
62 | TCAAGGAGGAAGTGGTAGGC | 4.75 | 5.38 | 2.88
63 | GTTTTGAGGAACTGCCAAAC | 4.78 | 4.66 | 1.14
